Reference: PMC4336329 (PLoS ONE, 2015)
About 14,000 (4.5%) of roughly 310,000 compounds showed an effect of 50% or more. Effects have a minus sign here. The list shows a part of the results.

molecular target: human ether-à-go-go-related gene (hERG) potassium channel (human, UniProt Q12809); assay: primary screen, population patch clamp on CHO cells stably expressing hERG
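Also: peak tail current of the secondary pulse compared with the same well before compound.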

human ether-à-go-go-related gene (hERG) potassium channel, sequence (Q12809 whole entry, looked up): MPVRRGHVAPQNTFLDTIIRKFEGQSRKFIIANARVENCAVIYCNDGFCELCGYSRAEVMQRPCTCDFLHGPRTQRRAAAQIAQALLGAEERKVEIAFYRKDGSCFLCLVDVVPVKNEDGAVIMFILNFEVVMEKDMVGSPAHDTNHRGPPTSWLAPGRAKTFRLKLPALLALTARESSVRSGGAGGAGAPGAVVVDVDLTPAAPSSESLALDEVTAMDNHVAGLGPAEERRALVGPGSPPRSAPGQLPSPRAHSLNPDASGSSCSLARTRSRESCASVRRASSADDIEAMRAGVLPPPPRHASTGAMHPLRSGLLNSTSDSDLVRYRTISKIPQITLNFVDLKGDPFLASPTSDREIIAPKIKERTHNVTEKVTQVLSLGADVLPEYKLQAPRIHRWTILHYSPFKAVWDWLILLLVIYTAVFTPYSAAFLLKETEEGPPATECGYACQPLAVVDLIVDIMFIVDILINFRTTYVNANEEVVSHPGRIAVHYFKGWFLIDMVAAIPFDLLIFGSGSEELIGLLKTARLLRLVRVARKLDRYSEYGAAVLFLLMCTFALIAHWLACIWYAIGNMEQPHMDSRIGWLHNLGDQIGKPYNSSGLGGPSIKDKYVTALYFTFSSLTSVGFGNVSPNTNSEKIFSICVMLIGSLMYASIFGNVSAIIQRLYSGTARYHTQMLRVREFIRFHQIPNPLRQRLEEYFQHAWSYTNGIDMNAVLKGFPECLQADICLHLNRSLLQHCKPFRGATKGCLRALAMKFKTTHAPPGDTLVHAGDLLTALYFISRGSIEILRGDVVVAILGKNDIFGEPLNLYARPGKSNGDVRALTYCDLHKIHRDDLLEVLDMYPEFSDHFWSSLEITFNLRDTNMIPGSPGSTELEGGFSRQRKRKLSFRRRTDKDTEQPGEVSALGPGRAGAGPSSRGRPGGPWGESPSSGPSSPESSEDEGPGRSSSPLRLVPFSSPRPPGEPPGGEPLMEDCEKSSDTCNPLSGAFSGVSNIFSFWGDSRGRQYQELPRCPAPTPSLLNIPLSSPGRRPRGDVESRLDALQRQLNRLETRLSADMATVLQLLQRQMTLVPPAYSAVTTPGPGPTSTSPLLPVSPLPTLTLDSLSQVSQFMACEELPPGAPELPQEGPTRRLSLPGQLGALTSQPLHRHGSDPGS

Point of comparison: `COC(=O)c1sccc1NC(=O)CC1NCCNC1=O` (centres unmarked), “hERG current change (%, negative = inhibition) at 10uM” value 0.0435%. Against it:
- COc1ccccc1NS(=O)(=O)c1cc(C(=O)NCC2CCCO2)ccc1C (centres unmarked) — lower, -36.8%
- COC(=O)c1cc(S(=O)(=O)NC2CCN(Cc3ccccc3)CC2)cn1C — higher, 0.48%
- Cc1cc(C(=O)OCC(=O)NCc2ccc(F)cc2)c2ccccc2n1 — lower, -9.67%
- FC(F)(F)C(F)(F)c1nnc2ccc(-n3ccnc3)nn12 — higher, 17.7%
- CC(C)c1nc2n[nH]c(N)c2c2c1CCCC2 — higher, 6.67%
- Cc1cc(=O)oc2cc(NC(=O)Cc3ccccc3)ccc12 — higher, 14.6%
- C=CCNC(=O)c1onc(CSc2ccc(F)c(F)c2)c1C(=O)NCC=C — lower, -64.5%
- O=C(CCc1nc2sc3c(c2c(=O)[nH]1)CCCC3)NCCOc1ccccc1 — lower, -12.4%
- COCCNC(=O)CN(C(=O)CCC(=O)Nc1ccccn1)c1ccccc1OC — higher, 12.5%
- CSc1nc2ccc(NC(=O)c3ccc(=O)n(C)n3)cc2s1 — lower, -6.11%
- O=C(c1ccc(Cn2cnnn2)cc1)N1CCCC(Nc2ccc(F)cc2)C1 (centres unmarked) — lower, -0.196%
- Cc1ccc(Sc2ncccc2COC(=O)Nc2ccccc2)cc1 — higher, 11.3%
- Cc1ccc(-n2c(O)c(C=NC3CCCC3)c(=O)[nH]c2=O)c(C)c1 — higher, 18%
- N#Cc1c(N)nc2c(c1-c1cccnc1)CCCCC2 — lower, -16.5%
- Cc1cc(C(=O)NCC(=O)OCC(=O)Nc2ccc(OC(F)F)cc2)ccc1[N+](=O)[O-] — lower, -67.8%
- Br.COc1ccccc1N1CCN(CCCCN2C(=O)c3ccccc3C2=O)CC1 — lower, -53.5%
- O=C(NC(=S)Nc1ccccn1)c1ccccc1 — higher, 14.1%
- COc1ccccc1S(=O)(=O)Cc1ccc(C(=O)NCc2cccnc2)o1 — higher, 5.9%
- Cc1cccc(C(=O)Nc2ccc(C(=O)N/N=C/c3ccco3)cc2)c1 — higher, 4.57%
- CCc1ccc(N2C(=O)c3ccc4c5c(ccc(c35)C2=O)CC4)cc1 — lower, -5.36%
- COc1ccc(NC(=O)CSc2nnc(Cn3c(=O)sc4ccccc43)n2C)cc1 — higher, 0.443%
- Cc1c(NC(=O)CSc2ccccc2F)c(=O)n(-c2ccccc2)n1C — higher, 22%
- CC(C)(C)NC(=O)COC(=O)c1ccccc1NC(=O)c1ccco1 — lower, -7.06%
- Cc1cccc2c1N(C)C(=O)C2=O — higher, 17.1%
- COC(=O)C1(NC(=O)NC2CCCCC2)CCCCC1 — higher, 15.3%
- CCc1ccccc1NC(=O)N1CCC(NC(=O)C(Cc2ccc(OC)c(OC)c2)NC(C)=O)CC1 (centres unmarked) — higher, 14.4%
- COc1ccc(S(=O)(=O)NCC2CCC(C(=O)O)CC2)cc1 (centres unmarked) — higher, 15.5%
- Cc1cc(C)cc(NC(=O)CSc2nc(N)c(NC(=O)c3ccc(Br)o3)c(=O)[nH]2)c1 — higher, 20.8%
- Cn1ncc2c(NNC(=O)Cc3ccccc3)ncnc21 — higher, 9.17%
- COC(=O)Nc1ccc(S(=O)(=O)N2CCCCC2C(=O)NCc2ccco2)cc1 (centres unmarked) — higher, 8.79%
- Cc1cc(C(=O)N/N=C/c2cc(Br)ccc2OC(=O)c2ccccc2)n[nH]1 — higher, 12.8%
- COC(=O)c1c(NC(=O)COC(=O)CC(NC(C)=O)c2ccccc2)sc(C)c1C (centres unmarked) — higher, 19.2%
- NC(=S)Nc1ncc(CCN2CCOCC2)c(-c2ccc(F)cc2)n1 — lower, -47.7%
- COc1cc(CCC(=O)Nc2cc(C)cc(C)c2)cc(OC)c1OC — higher, 23%
- CCCCNc1nc(CC)c2c(c1C#N)CCCC2 — higher, 8.24%
- CC(=O)Nc1ccc(NC(=O)C2CCCCN2S(=O)(=O)c2ccc(C(C)(C)C)cc2)cc1 (centres unmarked) — higher, 5.1%
- CCOc1ccc(Br)cc1S(=O)(=O)Nc1ccc(C(=O)Nc2ccc(C)cc2)cc1 — lower, -8.65%
- COc1cc(C)nc(Oc2ccc(OCCOc3ccccc3)nn2)n1 — lower, -2.83%
- O=C(Nc1ccc(Oc2ncnc3cc(Cl)ccc23)nc1)c1ccc(F)cc1 — higher, 10.4%
- COc1ccc(OC)c(N2C(=O)CC(Cc3ccc(C)cc3)C2=O)c1 (centres unmarked) — lower, -2.87%
- O=C(NCc1ccccc1)C1CCCN(c2cnccn2)C1 (centres unmarked) — lower, -28.9%
- COc1ccc(C2CC(c3ccc(C)cc3)Nc3ncnn32)cc1 (centres unmarked) — lower, -29.3%
- COc1ccc(NC(=O)C(=O)NCCN2CCN(C(=O)c3ccc(C(C)(C)C)cc3)CC2)cc1 — lower, -2.54%
- Cc1cc(C)n(CC(O)COCc2ccco2)n1 (centres unmarked) — lower, -3.37%
- O=C(COC(=O)CNC(=O)c1ccccc1F)NCCNC(=O)COC(=O)CNC(=O)c1ccccc1F — lower, -1.61%
- CC(=O)N1c2ccc(S(=O)(=O)NCCc3ccc(S(N)(=O)=O)cc3)cc2CC1C (centres unmarked) — higher, 13%
- COc1cccc(-c2nnc(-c3ccc(C(F)(F)F)cc3)o2)c1 — higher, 7.97%
- Cn1nc(-c2ccccc2)cc1NC(=O)Nc1ccc(F)cc1 — higher, 12.7%
- O=C(COC(=O)c1ccccc1)Nc1cc(S(=O)(=O)N2CCCCCC2)ccc1Cl — higher, 7.5%
- Cc1ccc(S(=O)(=O)Nc2cccc(C(=O)N3CCOCC3)c2)c(C)c1NS(C)(=O)=O — higher, 21.9%
- COc1ccc(Cl)cc1C(=O)O/N=C(\N)c1ccc(Cl)cc1 — lower, -22.9%
- O=C(Nc1ccccc1)OC1CCS(=O)(=O)C1 (centres unmarked) — lower, -16.1%
- CN1/C(=C\C=N\NC(=O)c2ccccc2Br)C(C)(C)c2ccccc21 — lower, -13.9%
- Cc1cc(C)c(C#N)c(SCc2ccc([N+](=O)[O-])cc2)n1 — higher, 15.9%
- CC(C)(C)OC(=O)N1CCC[C@H]1c1nnc(SCc2ccccc2)o1 — lower, -10.3%
- CCn1c(SCC(=O)N2CCOCC2)nnc1C(C)NC(=O)c1ccccc1 (centres unmarked) — higher, 17.7%
- CN(C)c1ccc(/C=N/n2c(-c3ccccc3Br)n[nH]c2=S)cc1 — higher, 1%
- CC(=O)c1c(C)[nH]c(C(=O)OCc2cccc(C)c2)c1C — higher, 14.4%
- CSc1nc(-c2ccccc2)cc(C)c1C#N — lower, -1.51%
- CCOC(=O)c1ccc(NC(=O)Cn2nnc3ccccc32)cc1 — higher, 1.73%
- CCCC1=NN(C(=O)Cc2ccc(OC)c(OC)c2)C(O)(C(F)(F)F)C1 (centres unmarked) — higher, 0.733%
- CCCc1nc2c(sc3nc4c(cc32)COC(C)(C)C4)c(=O)n1CCN(CC)CC — lower, -17.8%
- O=S(=O)(c1cccs1)N1CCN(c2ccc(O)cc2)CC1 — lower, -21.8%
- COc1cc(/C=N/NC(=O)CCC(=O)Nc2ccc(C)cc2)ccc1O — lower, -10.3%
- Br.Cc1ccc(S(=O)(=O)NN2Cc3ccccc3C2=N)cc1 — higher, 7.02%
- Cc1ccc2[nH]c(=O)c(C(c3nnnn3CCc3ccccc3)N3CCOCC3)cc2c1 (centres unmarked) — lower, -10.5%
- Cn1c(=O)cc(NCCc2ccccc2)[nH]c1=O — lower, -8.48%
- CCOC(=O)C1CCCN(C(=O)c2ccc3c(c2)OCO3)C1 (centres unmarked) — higher, 7.81%
- CCOc1cccc2cc(C(=O)NC(C)c3ccccc3)c(=N)oc12 (centres unmarked) — lower, -19.6%
- CC1=C(C(=O)N2CCCC(N3CCN(c4cccc(Cl)c4)CC3)C2)OCCO1 (centres unmarked) — higher, 17.6%
- CCOC(=O)c1ccc(NC(=O)CSc2nnnn2C2CCCCC2)cc1 — higher, 12.9%
- COc1ccccc1C1(O)CCN(CC(=O)Nc2nc(-c3ccccc3)cs2)CC1 — lower, -56.8%
- COc1ccc(N(CC(=O)N/N=C/c2cccc3c2OCCO3)S(=O)(=O)c2ccc(NC(C)=O)cc2)cc1 — higher, 11.4%
- CCCCOc1ccc(C(=O)NCC(=O)N2CCN(C(=O)c3ccco3)CC2)cc1 — lower, -57.4%
- Cc1cc(NC(=O)CN2C(=O)N(C)C3(CCCCC3)C2=O)ccc1Br — lower, -9.52%
- CCOc1ccc(Cc2nc(N)nc(N)n2)cc1 — lower, -4.83%
- NC(=O)CN1C(=O)C(O)(CC(=O)/C=C\C=C\c2ccccc2)c2ccccc21 (centres unmarked) — higher, 1%
- Cc1ccc(C)c(NC(=O)COC(=O)c2ccc3c(c2)OCCO3)c1 — higher, 11.2%
- CCOC(=O)c1c(C)[nH]c(-c2csc(C)n2)c1C — higher, 8.32%
- Cc1ccc(NC(=O)c2cc(-c3cc(C)c(C)cc3O)n[nH]2)cc1C — higher, 4.32%
- CCCS(=O)(=O)c1nc(S(=O)(=O)c2ccc(C)cc2)c(N2CCC3(CC2)OCCO3)s1 — lower, -37%
- CCCC(=O)Nc1c(-c2ccccc2)c(=O)c(C)nn1-c1ccc(C)cc1 — higher, 2.29%
- COc1ccc(CNC(=O)C2CCCN(S(=O)(=O)c3c(C)noc3/C=C/N(C)C)C2)cc1 (centres unmarked) — higher, 10.9%
- CCCCc1nnc(NC(=O)C(=O)OCC)s1 — higher, 38.2%
- COCCNC(=O)c1cccc(OC2CCN(Cc3cccc(C(C)=O)c3)CC2)c1 — higher, 6.74%
- Cn1c(CSCCOc2ccccc2)n[nH]c1=S — higher, 10.7%
- CN(C(=O)CSc1nncc2ccccc12)C1CCCCC1 — lower, -17.4%
- OCC[C@@H]1C[C@@H](O)[C@H](O)[C@@]2(CCCCO2)O1 — higher, 12.8%
